Some of the results follow. Values were computed here from the reads of four pooled replicates and scatter widely.
molecular target: T1, Pho4 (S. cerevisiae) (UniProt P07270); experiment: relative binding free energy (BET-seq); higher = weaker binding; details: reference: library average
T1 sequence: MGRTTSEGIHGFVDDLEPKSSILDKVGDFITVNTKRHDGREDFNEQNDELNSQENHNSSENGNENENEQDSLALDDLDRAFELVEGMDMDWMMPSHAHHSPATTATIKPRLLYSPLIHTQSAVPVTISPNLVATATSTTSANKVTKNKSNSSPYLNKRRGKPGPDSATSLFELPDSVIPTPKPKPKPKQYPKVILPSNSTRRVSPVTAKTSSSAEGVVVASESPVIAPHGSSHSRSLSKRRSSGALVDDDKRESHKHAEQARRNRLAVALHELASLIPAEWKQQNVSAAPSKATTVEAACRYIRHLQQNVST

Relative binding free energy, 0.12 kcal/mol:
ATGGACACGTGAGGTG, TTGAACACGTGGGGAC, TTATTCACGTGACGTA, TTTGTCACGTGTAAGA, TGGTACACGTGTCTTA, TTAAACACGTGCAGGG, TAGATCACGTGGGGGA

Relative binding free energy, 0.27 kcal/mol:
TGGCACACGTGAGAGG, ATTTTCACGTGAAGTG, TGTTACACGTGTGATA, TCGTTCACGTGTTGTT

Relative binding free energy, 0 kcal/mol:
AACTGCACGTGGTCGG, GATAGCACGTGTGAGA, CTTTACACGTGGTTGG, ACTGTCACGTGGGTTT, TCAGCCACGTGTTGTG

Relative binding free energy, 0.23 kcal/mol:
AGCTGCACGTGAATGT, TTTAACACGTGAGGCG, CCGATCACGTGGTGGT

Relative binding free energy, -0.01 kcal/mol:
AAGAGCACGTGACGGG, TTGAGCACGTGCAAGG, GGTGGCACGTGGTGGT

Relative binding free energy, 0.38 kcal/mol:
CGGAACACGTGAGGTT, GTAGTCACGTGAATGA

Relative binding free energy, -0.05 kcal/mol:
TGATACACGTGTTGAT, ATAGACACGTGTTGGT, TCGGGCACGTGTTATG, TTGAGCACGTGTATTG, TTTTGCACGTGCGTAT, CTGTGCACGTGTATAT

Relative binding free energy, 0.01 kcal/mol:
ATATGCACGTGTGAGT, GGTTACACGTGCGGCG, TTTGACACGTGGATAT, TTAGTCACGTGCAGGG, GGCTGCACGTGTTCGT, TTGGACACGTGGTGTT, GATAGCACGTGTTTTT, GTCTACACGTGGGGTA

Relative binding free energy, -0.09 kcal/mol:
AGTGTCACGTGCTTAT, GGTGGCACGTGGCGGT, TTCGTCACGTGTCGTG, GGTCGCACGTGCGTGG

Relative binding free energy, -0.21 kcal/mol:
GTAGGCACGTGGTGCT

Relative binding free energy, 0.04 kcal/mol:
CGATGCACGTGTGGGT, GGGGACACGTGTACGG, TGTAACACGTGGATTT, TTTGTCACGTGGCGTG, TTACGCACGTGTGTGT, TTTGTCACGTGGCTTT

Relative binding free energy, -0.1 kcal/mol:
CTCGGCACGTGGTTAG, CGTGGCACGTGGGAGA, AGCTGCACGTGCGGTG, ATCGGCACGTGGGAGC, GGGACCACGTGGTGGC, AGCAGCACGTGCAGGG, GAGACCACGTGGGGTG

Relative binding free energy, -0.35 kcal/mol:
CTAGGCACGTGGGGCA

Relative binding free energy, -0.12 kcal/mol:
AGGAGCACGTGCGGGC, ACATGCACGTGGTGGA, TTTAGCACGTGCGTAG, CGGTGCACGTGTGGGA, TAACGCACGTGGTCGT, TTCCGCACGTGGTGGT, ATGGGCACGTGGTTCA

Relative binding free energy, 0.08 kcal/mol:
ATTATCACGTGGTCGA, AGTGGCACGTGAGGAC

Relative binding free energy, 0.14 kcal/mol:
GGCGACACGTGTGGGA, ATATGCACGTGAAGTG

Relative binding free energy, 0.02 kcal/mol:
TAGTACACGTGTGATA, TTGTGCACGTGGATAG, ATTGTCACGTGGCAAA, TAATGCACGTGTCAGG, CGAGGCACGTGATTTG, ATGTCCACGTGTTTGA

Relative binding free energy, -0.04 kcal/mol:
ATAGTCACGTGGGTGG, GTTAACACGTGCGTGT, AGGTGCACGTGATCGG, TTCGGCACGTGTGAGT, AGGGTCACGTGGCAAT

Relative binding free energy, 0.05 kcal/mol:
ATGAACACGTGGATGA, AGGTGCACGTGTCAAT

Relative binding free energy, 0.13 kcal/mol:
GCTGTCACGTGTGGTG, TGGGTCACGTGGCTTG, TATGGCACGTGACAAT, TGGATCACGTGGTTAG, GCTTACACGTGTTTGT

Relative binding free energy, -0.02 kcal/mol:
ATCTGCACGTGGTGTA, AGTTGCACGTGTTGCA, CTTGTCACGTGGGGCG, TTCTGCACGTGGTGGC

Relative binding free energy, -0.07 kcal/mol:
TGACTCACGTGTAGGG, GGGGGCACGTGAGCGC, GGTGGCACGTGTGCAT, AATGACACGTGGAGGG

Relative binding free energy, 0.16 kcal/mol:
TTATTCACGTGGGAGC, AGTTACACGTGTTAAA, AATTTCACGTGCTTGG

Relative binding free energy, 0.28 kcal/mol:
GGGGTCACGTGATGCC, GTTATCACGTGATGAA, TTATTCACGTGTTGTC, AGGCTCACGTGTGTGG, AGTTACACGTGTGAGT, GTGTACACGTGATGGG, GGGGTCACGTGATTTG

Relative binding free energy, -0.24 kcal/mol:
CGATGCACGTGGGTGA

Relative binding free energy, 0.22 kcal/mol:
GGTGACACGTGACGTT, CGTTTCACGTGCAGTG, TAGTTCACGTGTAGAG, TGGGTCACGTGTCGGG, AGGTTCACGTGCATGT

Relative binding free energy, -0.37 kcal/mol:
TGGCCCACGTGGGAGG

Relative binding free energy, 0.29 kcal/mol:
GTTTTCACGTGGAGTA, GGTTGCACGTGAACGT, TTTCTCACGTGCGGGG

Relative binding free energy, -0.23 kcal/mol:
TTAAGCACGTGGCGGG

Relative binding free energy, 0.21 kcal/mol:
TTTTACACGTGATATG

Relative binding free energy, 0.25 kcal/mol:
TGATTCACGTGTTATG, GTCTACACGTGCGTGT

Relative binding free energy, 0.44 kcal/mol:
GGTTTCACGTGTTGCT

Relative binding free energy, -0.15 kcal/mol:
GAAGGCACGTGGGGTA

Relative binding free energy, 0.33 kcal/mol:
TAAATCACGTGCGGTG, ATTGTCACGTGAGTCA, TAAATCACGTGACGTT

Relative binding free energy, 0.03 kcal/mol:
TATTACACGTGGATTT, CTTTGCACGTGCGGGA, GTCAGCACGTGTATTT, CACGTCACGTGTGGTT

Relative binding free energy, 0.26 kcal/mol:
TGGATCACGTGAATAG, TTTATCACGTGGAGGC, TCGGTCACGTGAATGG, TGCCTCACGTGTGTAG, TGGGCCACGTGAGGTT, AAAATCACGTGCGGGG, TTTTTCACGTGATACG

Relative binding free energy, -0.11 kcal/mol:
ATATGCACGTGGGTGG, TGTGGCACGTGGTGGT, GTTAGCACGTGGTCTT, ATTAGCACGTGGCTTG

Relative binding free energy, -0.28 kcal/mol:
CTAAGCACGTGGTGTG

Relative binding free energy, -0.22 kcal/mol:
TGGGGCACGTGCCTGG, GAGTGCACGTGGGGTA

Relative binding free energy, -0.13 kcal/mol:
CGTGGCACGTGTTGTA

Relative binding free energy, -0.2 kcal/mol:
CTTGGCACGTGGTGTT, GGCGCCACGTGGGAGT, AGTTGCACGTGGGCAA

Relative binding free energy, 0.17 kcal/mol:
CAAGGCACGTGAGGTT, ATTTTCACGTGTCGCT, GGAGTCACGTGTGTCA

Relative binding free energy, 0.32 kcal/mol:
AGATTCACGTGAGCGT

Relative binding free energy, 0.19 kcal/mol:
CGCGTCACGTGTAGTG, TGTTTCACGTGACGCT, GGGTTCACGTGGGTGC, GTAGTCACGTGGATGG

Relative binding free energy, -0.26 kcal/mol:
GCGCACACGTGGGGTG

Relative binding free energy, -0.08 kcal/mol:
AATTGCACGTGTATGG, TGTGGCACGTGATTAT, TGGTGCACGTGCTTTT, TGTGGCACGTGCTAAT

Relative binding free energy, -0.17 kcal/mol:
CTAGGCACGTGGTAAG, GTTGCCACGTGGTTGT, AGATGCACGTGGCGTT

Relative binding free energy, 0.09 kcal/mol:
TGCTACACGTGATTGT, TTAGTCACGTGGCTGG, GATGGCACGTGTGATG, TGTGACACGTGACTGG, TTCACCACGTGTGGTT, TTCCGCACGTGATGGT, TTTTACACGTGTGTTA, GGAGTCACGTGCTAGG, GTAGTCACGTGGTTCG

Relative binding free energy, 0.3 kcal/mol:
GGTCTCACGTGAGGGA

Relative binding free energy, 0.11 kcal/mol:
ATTCACACGTGTGGTG, CTTCTCACGTGGGATG, TCTGACACGTGTTGAT, GGTGTCACGTGTATCA

Relative binding free energy, 0.06 kcal/mol:
GCAGTCACGTGGTATA, TGAGTCACGTGGCGTG, TTGGACACGTGTGAAG, TGGGTCACGTGCATCG, AATAACACGTGTGATT, CGGGTCACGTGCAGTT

Relative binding free energy, -0.18 kcal/mol:
GTGACCACGTGGGGGG

Relative binding free energy, 0.36 kcal/mol:
TGATTCACGTGAAGTG, GGGTTCACGTGAAAAT, AGTTTCACGTGTTCCG

Relative binding free energy, 0.35 kcal/mol:
ATCATCACGTGTATTT

Relative binding free energy, 0.07 kcal/mol:
ATAGTCACGTGGAGCG, TCTGGCACGTGGATTA, GGCAGCACGTGATTGT, CTTTACACGTGGGGGA

Relative binding free energy, 0.1 kcal/mol:
TGTCTCACGTGTTCGG, TGATACACGTGCTGGG, GTGTACACGTGTAGTT

Relative binding free energy, -0.25 kcal/mol:
AATGACACGTGGTGTG, TGGGGCACGTGGCGCT

Relative binding free energy, -0.06 kcal/mol:
GTATACACGTGGGGGG, GCGGGCACGTGCGAGT, TGGGGCACGTGGAGAC

Relative binding free energy, 0.15 kcal/mol:
TGTCACACGTGGTTCG, TAATGCACGTGATAGA, TTCAACACGTGTGGTT, GTGTCCACGTGTTCGG

Relative binding free energy, 0.2 kcal/mol:
GGAATCACGTGGATAG, TTAGTCACGTGATGGA, CTTTTCACGTGGGCTG, TATTACACGTGTTGAA

Relative binding free energy, 0.5 kcal/mol:
TAGTTCACGTGATGGC

Relative binding free energy, 0.37 kcal/mol:
CGTGTCACGTGAGTTG, CGGTTCACGTGTGGAC

Relative binding free energy, -0.29 kcal/mol:
GGTGGCACGTGCCTGG

Relative binding free energy, 0.24 kcal/mol:
GACGTCACGTGTGGAT, CATGGCACGTGAAGGA, TTCGTCACGTGTGAGC

Relative binding free energy, -0.19 kcal/mol:
AGTAACACGTGGTGGT, TAGGGCACGTGGTAGC

Relative binding free energy, -0.14 kcal/mol:
AATGACACGTGGTAGT, GTGTGCACGTGCGAGG

Relative binding free energy, -0.03 kcal/mol:
ATAAACACGTGGTGTA, ACGTGCACGTGTGGGA, AATTCCACGTGGGGGG, GTGGACACGTGTTCTG, GAAGGCACGTGTGGAA, TGTTGCACGTGTGTAC, TGCTGCACGTGTTATT

Relative binding free energy, 0.43 kcal/mol:
TAGTTCACGTGAATGG

Relative binding free energy, 0.31 kcal/mol:
AATTTCACGTGGAGCG, GATTTCACGTGTTAGA, GCGATCACGTGAAGGG, GTTTTCACGTGCTTTT, GTGGTCACGTGAGCTG

— the BET-seq Pho4 binding data (Le et al. 2018)
